Measured values from paper PMC4336329 (PLoS ONE, 2015).
Out of some 310,000 compounds screened, about 2,200 (0.71%) showed an effect of 50% or more. Effects have a minus sign here. Some of the results follow.

Target: human ether-à-go-go-related gene (hERG) potassium channel (human, UniProt Q12809)
Experiment: primary screen, population patch clamp on CHO cells stably expressing hERG

Sequence of human ether-à-go-go-related gene (hERG) potassium channel (Q12809 whole entry, looked up): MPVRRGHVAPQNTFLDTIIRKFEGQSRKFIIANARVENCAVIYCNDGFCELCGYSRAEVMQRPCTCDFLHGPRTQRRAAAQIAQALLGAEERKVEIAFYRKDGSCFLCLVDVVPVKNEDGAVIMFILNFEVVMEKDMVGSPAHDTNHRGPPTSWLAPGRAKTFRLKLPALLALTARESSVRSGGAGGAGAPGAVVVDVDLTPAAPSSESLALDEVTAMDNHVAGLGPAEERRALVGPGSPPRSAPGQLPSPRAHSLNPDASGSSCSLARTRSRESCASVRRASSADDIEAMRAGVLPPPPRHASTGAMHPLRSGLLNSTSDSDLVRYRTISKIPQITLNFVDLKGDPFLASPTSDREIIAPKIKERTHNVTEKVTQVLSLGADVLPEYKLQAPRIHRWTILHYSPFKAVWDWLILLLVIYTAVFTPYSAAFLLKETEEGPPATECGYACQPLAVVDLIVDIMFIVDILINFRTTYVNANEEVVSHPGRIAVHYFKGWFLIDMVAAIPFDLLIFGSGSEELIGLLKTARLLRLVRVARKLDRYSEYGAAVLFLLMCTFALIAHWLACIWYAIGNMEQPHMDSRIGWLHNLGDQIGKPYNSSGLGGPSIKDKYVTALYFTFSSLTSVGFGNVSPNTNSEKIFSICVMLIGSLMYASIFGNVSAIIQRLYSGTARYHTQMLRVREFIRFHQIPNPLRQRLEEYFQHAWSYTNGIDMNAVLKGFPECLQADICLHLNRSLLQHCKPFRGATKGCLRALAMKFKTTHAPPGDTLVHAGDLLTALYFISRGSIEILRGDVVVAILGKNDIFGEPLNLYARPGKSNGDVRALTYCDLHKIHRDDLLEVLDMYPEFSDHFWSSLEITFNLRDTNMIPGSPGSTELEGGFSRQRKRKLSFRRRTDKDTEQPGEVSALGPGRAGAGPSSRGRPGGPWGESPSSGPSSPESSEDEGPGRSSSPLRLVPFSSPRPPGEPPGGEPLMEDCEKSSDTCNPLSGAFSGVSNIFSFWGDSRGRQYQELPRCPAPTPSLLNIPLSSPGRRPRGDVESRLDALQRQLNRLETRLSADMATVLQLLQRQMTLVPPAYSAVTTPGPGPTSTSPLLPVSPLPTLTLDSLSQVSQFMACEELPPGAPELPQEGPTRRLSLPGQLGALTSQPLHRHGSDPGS

| Compound | hERG current change (%, negative = inhibition) at 1uM |
| --- | --- |
| COc1c(C)cc(Br)cc1C(=O)Nc1ccc(N2CCN(S(C)(=O)=O)CC2)cc1 | 12.5% |
| O=c1nc2c(-c3ccccc3F)n[nH]n2c2ccccc12 | 15.9% |
| Cc1cccc(-n2ncc3c(N4CC(C)CC(C)C4)ncnc32)c1 (stereo not shown) | 11% |
| CCc1ccc(C(=O)COC(=O)c2ccccc2OC)cc1 | 8.55% |
| O=C1CCCC(O)=C1C1C2=C(CCCC2=O)Oc2ccccc21 (stereo not shown) | 2.89% |
| Cc1ccc(/C=N/NC(=O)C[n+]2ccccc2)s1.[Cl-] | 15.7% |
| CN(C)/C=C1\C=C2C(=O)c3ccccc3N2C1=O | 12.6% |
| O=[N+]([O-])c1cc2c(c(CSc3nnc(Nc4ccccc4)s3)c1)OCOC2 | 5.06% |
| COc1ccccc1CN1CCN(C(=O)c2ccncc2)CC1 | 14.3% |
| O=C(NCc1cccs1)C1CC(=O)N(C2CCCC2)C1 (stereo not shown) | 9.68% |
| COCCn1c(SCC(=O)NC2CC2)nnc1-c1ccc(Cl)cc1 | 5.3% |
| COc1ccc(N2Cc3ccccc3C2=NC(=O)c2cccc([N+](=O)[O-])c2)cc1 | 18.8% |
| COc1cc(NC(=O)CSc2ncnc3sc4c(c23)CCCC4)c(C(=O)O)cc1OC | 7.01% |
| C=CCc1ccccc1OCC(O)CN1CCN(CCN2C(=O)c3cccc4cccc(c34)C2=O)CC1.Cl (stereo not shown) | -35.4% |
| CCN(CC)c1ccc(/C=N/Nc2nc(C)cc(C)n2)cc1 | 9.14% |
| Cc1cnc(C(=O)Nc2ccccc2-n2cccc2)cn1 | -20.5% |
| C=CCSc1nc(C)c(CCC(C)C)c(=O)[nH]1 | -3.63% |
| COc1cc(C(=O)Nc2ccc(S(=O)(=O)Nc3nccc(C)n3)cc2)c([N+](=O)[O-])cc1OC | 12.6% |
| O=C(c1ccc(Cl)cc1)C12CN3CN(CN(C3)C1)C2 | 7.73% |
| Cc1ccc(-c2nnc(N(C)C(=O)c3ccncc3)s2)cn1 | 6.44% |

| Compound | hERG current change (%, negative = inhibition) at 1uM |
| --- | --- |
| O=C(OCc1nc2ccccc2s1)c1ccc([N+](=O)[O-])o1 | 17.5% |
| CCOc1ccccc1/C=N/NC(=O)c1cc(C(C)C)[nH]n1 | 10.7% |
| CC(OC(=O)C1CCN(S(=O)(=O)c2ccccc2)CC1)C(=O)Nc1ncc(Cl)cc1Cl (stereo not shown) | -30.2% |
| CCCNC(=S)N1CCC(NC(=O)c2cccc(C)c2)CC1 | 22.2% |
| CCC(C)(C)NC(=O)C(c1cccn1C)N(C(=O)Cn1nnc2ccccc21)c1ccc(OC)cc1 (stereo not shown) | 10.2% |
| O=C(Cc1ccccc1[N+](=O)[O-])NCCCc1ccccc1 | 13.9% |
| CCOC(=O)N1CCN(S(=O)(=O)c2ccc(C(=O)Nc3sc4c(c3C#N)CCC4)cc2)CC1 | 2.82% |
| O=C(NCc1n[nH]c(=O)c2ccccc12)C1CC(=O)N(c2ccccc2)C1 (stereo not shown) | 3.87% |
| Cc1[nH]n(-c2ccccc2)c(=O)c1/C=N/n1c(C)nc2ccccc2c1=O | 14.4% |
| O=C(CCN1C(=O)COc2ccccc21)N1CCCCC1 | -3.07% |
| COc1cccc(CC(=O)OCC(=O)c2cc(OC)ccc2OC)c1 | -10.1% |
| O=C(c1cccc(Br)c1)c1coc2ccc(O)cc12 | 10.4% |
| CC1CCN(CCCn2c(=S)[nH]c3ccccc3c2=O)CC1 | -13.5% |
| Cc1ccc(S(=O)(=O)N2CCOCC2)cc1NC(=O)COC(=O)COc1cccc2c1OC(C)(C)C2 | 9.09% |
| O=C(N/N=C/c1cccc([N+](=O)[O-])c1)c1ccc(COc2ccccc2-c2ccccc2)cc1 | 1.68% |
| CCC(C)(C)NC(=O)CN(Cc1ccc2c(c1)OCO2)C(=O)CCC(=O)Nc1ccccn1 | 8.54% |
| O=C(C1=C[C@@H](c2ccc(C(F)(F)F)cc2)C[C@@H](OCCCCO)O1)N1CCCCCCC1 | 17.4% |
| CN(C)/C=N/C(=S)Nc1ccc(Br)cc1F | 11.7% |
| NS(=O)(=O)c1ccc(CNS(=O)(=O)c2ccc3ccccc3c2)cc1 | 2.53% |
| CCCNC(=O)c1ccc2nc(-c3ccccc3)c(-c3ccccc3)nc2c1 | 13% |

| Compound | hERG current change (%, negative = inhibition) at 1uM |
| --- | --- |
| CCc1ccccc1NC(=O)CC1SCCNC1=O (stereo not shown) | 24% |
| O=[N+]([O-])c1cc([N+](=O)[O-])c(Oc2cc(F)ccc2F)cc1NN1CCCCC1 | 22.2% |
| CCC(=O)c1ccc(SC(=O)N(C)C)cc1O | 14.2% |
| CCOC(=O)C1CCN(C(=O)/C=C/c2ccccc2OC)CC1 | -7.77% |
| COc1ccccc1Oc1ccc(S(=O)(=O)N2CCOCC2)cc1S(=O)(=O)N1CCOCC1 | -21.4% |
| CCNC(=O)N1CCOCC1 | 11.8% |
| NC(=O)CCS(=O)(=O)c1ccccc1 | 14.3% |
| COc1ccc(Cc2nc(-c3cccs3)no2)cc1 | 10.2% |
| COc1cccc(OC)c1C(=O)Nc1sc2c(c1C#N)CCC2 | 13.2% |
| O=C1C2CC=CCC2C(=O)N1CC1CCCO1 (stereo not shown) | 6.16% |
| Fc1ccc(Br)cc1/C=N/n1cnnc1 | 15% |
| O=S(=O)(Nn1c(O)c(C=C2N=c3ccccc3=N2)sc1=S)c1ccccc1 | 8.42% |
| O=C1CCNc2c(Cl)cc(Cl)cc21 | 11.6% |
| CCC1CCCCN1CCCNC(=O)c1ccc(CS(=O)(=O)c2ccccc2C)o1 (stereo not shown) | 2.22% |
| COc1ccc(CC(NC(C)=O)C(=O)N2CCN(C(=O)Nc3cccc(Cl)c3)CC2)cc1OC (stereo not shown) | 13.7% |
| O=C(CCC(=O)c1cccs1)Nc1nnc(C2CC2)s1 | 15.5% |
| O=C(NNc1nc2ccccc2nc1C(F)(F)F)c1ccccc1 | 11.7% |
| CC1=NN(c2ccccc2)C(=O)/C1=C\c1c(C)[nH]n(-c2ccccc2)c1=O | 6.91% |
